Measured values: paper PMC4336329 (PLoS ONE, 2015)
Screen size: about 310,000 compounds; about 2,200 (0.71%) showed an effect of 50% or more. The effect is printed as a negative number. This is one part of the list.

target: human ether-à-go-go-related gene (hERG) potassium channel (human, UniProt Q12809); assay: primary screen, population patch clamp on CHO cells stably expressing hERG
Sequence (Q12809 whole entry, looked up): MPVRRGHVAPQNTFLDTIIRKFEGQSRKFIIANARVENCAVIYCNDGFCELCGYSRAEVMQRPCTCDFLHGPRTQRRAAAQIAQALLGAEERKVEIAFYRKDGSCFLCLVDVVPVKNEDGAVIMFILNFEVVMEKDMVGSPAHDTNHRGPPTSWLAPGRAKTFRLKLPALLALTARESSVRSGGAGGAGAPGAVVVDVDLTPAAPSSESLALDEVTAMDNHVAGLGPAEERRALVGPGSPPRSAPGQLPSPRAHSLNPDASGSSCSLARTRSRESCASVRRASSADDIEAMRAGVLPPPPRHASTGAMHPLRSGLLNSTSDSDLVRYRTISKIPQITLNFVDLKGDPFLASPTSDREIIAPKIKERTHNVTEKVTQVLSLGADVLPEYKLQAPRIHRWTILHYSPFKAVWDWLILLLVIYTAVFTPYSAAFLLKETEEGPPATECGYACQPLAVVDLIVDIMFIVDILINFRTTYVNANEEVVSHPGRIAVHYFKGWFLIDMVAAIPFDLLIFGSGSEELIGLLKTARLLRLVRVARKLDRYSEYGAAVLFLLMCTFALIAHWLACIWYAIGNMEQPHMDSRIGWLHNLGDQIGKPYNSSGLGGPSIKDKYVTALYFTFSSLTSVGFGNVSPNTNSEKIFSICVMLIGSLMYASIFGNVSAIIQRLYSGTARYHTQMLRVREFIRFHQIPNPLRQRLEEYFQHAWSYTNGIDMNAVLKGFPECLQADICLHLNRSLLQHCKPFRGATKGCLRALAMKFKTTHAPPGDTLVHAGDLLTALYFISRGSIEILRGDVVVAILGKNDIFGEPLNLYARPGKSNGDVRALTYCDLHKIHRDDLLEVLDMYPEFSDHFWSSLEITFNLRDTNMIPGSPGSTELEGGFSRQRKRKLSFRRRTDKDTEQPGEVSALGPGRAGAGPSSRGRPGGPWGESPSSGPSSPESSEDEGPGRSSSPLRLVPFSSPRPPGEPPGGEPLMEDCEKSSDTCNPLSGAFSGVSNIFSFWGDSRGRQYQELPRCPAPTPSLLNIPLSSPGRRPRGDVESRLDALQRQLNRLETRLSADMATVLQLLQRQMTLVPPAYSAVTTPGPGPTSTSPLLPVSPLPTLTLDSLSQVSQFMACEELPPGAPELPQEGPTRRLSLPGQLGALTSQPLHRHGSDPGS

Row | Structure (SMILES) | hERG current change (%, negative = inhibition) at 1uM [%]
1 | Cn1nc(C(=O)NCc2ccco2)c2ccccc2c1=O | 3.53
2 | O=C(CCSc1ccccc1)NC(=O)COC(=O)c1ccc(OC(F)F)cc1 | 2.99
3 | N#CCC(=O)N1CC2(CC(c3cccc(NC(=O)COc4ccc(Cl)cc4)c3)=NO2)C[C@@H]1C(N)=O (stereo partly shown) | 5.41
4 | COc1ccc(NC(=O)Nc2cc(C)ccc2F)cc1 | 15
5 | O=C(Nc1ccccc1C(=O)N/N=C/c1ccc(O)cc1)c1ccccc1 | 8.37
6 | Cc1ccccc1-c1nnc(NC(=O)CSc2nc3ccccc3s2)s1 | 9.01
7 | CC(C)c1onc(C(=O)NCc2ccc(Cl)cc2)c1[N+](=O)[O-] | 11.2
8 | CC(C)C[C@@H](CSc1ccc(Br)cc1)N1CCN(CCc2ccccc2)CCC1=O | -28.9
9 | Cc1nn(-c2ccccc2)c(Cl)c1C(=O)NCC(C)c1ccccc1 (stereo not shown) | 12.3
10 | COCCCNC(=O)CCn1c(=O)c2ccccc2n(CC(=O)NCCc2ccc(OC)c(OC)c2)c1=O | 8.61
11 | Cc1ccc(-c2nc(SCC(N)=O)c(C#N)c3c2CCCC3)cc1 | -0.619
12 | COC(=O)c1cc(Cl)nc2ccccc12 | 3.37
13 | COc1ccc(N2C(=O)C3CCCN3C2c2cccc(C)c2)cc1Cl (stereo not shown) | 0.486
14 | COc1ccc(N(CC(=O)NC2CCCC2)C(=O)CCC(=O)Nc2cc(C)on2)cc1OC | -7.47
15 | CCOC(=O)[C@]1(C#N)[C@@H]2C=CC(C(N)=O)=CN2[C@@H](C(N)=O)[C@@H]1c1ccc(F)cc1 | 13.7
16 | c1ccc(-c2ccc(C3=Nn4c(Cn5nnc6ccccc65)nnc4SC3)cc2)cc1 | 16.8
17 | COc1ccc(CCNC(=O)c2ccccc2NC(=O)c2ccco2)cc1OC | -11.3
18 | CO/N=C\CC(=O)Nc1ccc(Cl)c(Cl)c1 | 16
19 | CCn1nc2cc(C(=O)NCCc3cccs3)ccc2c1OC | -5.96
20 | O=C(COC(=O)c1cc(-c2ccccc2)nc2ccccc12)Nc1ccc2c(c1)OCO2 | 8.35
21 | Cc1ccc(-c2cc(C(=O)OCC(=O)Nc3ncc(C(F)(F)F)cc3Cl)c3ccccc3n2)cc1 | 12.6
22 | Cc1[nH]c2ccc(F)cc2c1CCNC(=O)C1CCCCC1C(=O)OCC(F)(F)F (stereo not shown) | 0.936
23 | COc1ccc(N2C(=O)C(Cl)=C(N3CCOCC3)C2=O)cc1 | 10.2
24 | Cn1c(=NC(=O)CCl)sc2ccccc21 | 6.93
25 | C=CCn1c(SCCOc2ccc(OC)cc2)nnc1C(C)NC(=O)Cc1ccc(OC)cc1 (stereo not shown) | -3.16
26 | CCOc1ccc(/C=N/NC(=O)COc2ccccc2-c2ccccc2)cc1 | 11.1
27 | CN1C(C(=O)NCc2ccccc2)CC2Cn3c(nc4cc5ccccc5cc43)C21 (stereo not shown) | -21.3
28 | COC(=O)C(O)(c1ccc(N(C)C(=O)c2ccc(Cl)c(Cl)c2)cc1)C(F)(F)F (stereo not shown) | 3.81

Row | Structure (SMILES) | hERG current change (%, negative = inhibition) at 1uM [%]
29 | CC(=O)Nc1c(O)n(C)c2ccccc12 | 12
30 | Cc1ccc(C(=O)CSc2nc3ccc(C(=O)NCCN4CCCCC4)cc3c(=O)[nH]2)cc1 | 9.89
31 | COc1cccc(SCc2noc(C(=O)NCc3ccccc3)c2C(=O)NCc2ccccc2)c1 | 15.7
32 | Cc1cc2c(=O)n(C)c(SCC(=O)NC3CCCC3)nc2s1 | 2.81
33 | COC(=O)CSc1nc2c(c(=O)n(C)c(=O)n2C)n1CCC(C)C | 2.4
34 | CN1CCC(N(C)S(=O)(=O)c2ccc(C(C)(C)C)cc2)CC1.Cl | 2.58
35 | c1cc(CCCc2ccncc2)ccn1 | 1.58
36 | Cc1ccccc1CN1CCN(c2ccc(Cl)cc2)CC1 | 9.61
37 | Cc1cc(C)n(C(=O)c2cccc(S(=O)(=O)N3CCOCC3)c2)n1 | 12.4
38 | CN1CCN(C(=O)/C(=C/c2cccs2)NC(=O)c2ccco2)CC1 | -62.1
39 | Oc1[nH]c2ccccc2c1/C=N/c1nccs1 | 12.2
40 | O=S(=O)(c1ccc(S(=O)(=O)N2CCCC2)cc1)N1CCCCCC1 | 6.28
41 | COc1ccc(N2CCN(C(=O)COc3ccccc3)CC2)cc1 | 0.864
42 | Cl.O=S(=O)(c1ccccc1)N(CC(O)CN1CCCCC1)c1ccccc1 (stereo not shown) | -21
43 | O=C(c1nc2ccc(Cl)cn2c1CNCCc1cnccn1)N1CCCCCCC1 | 7.59
44 | Cc1ccc(S(=O)(=O)c2nnn3c2nc(Nc2cccc(C)c2)c2ccccc23)cc1 | 18
45 | S=C(Nc1ccc(Cl)cc1Cl)Nc1ccccc1Oc1ccccc1 | 12.4
46 | CN1CCN(CCC(=O)N/N=C/c2cc([N+](=O)[O-])ccc2O)CC1 | -0.0797
47 | CC(C)(C)OC(=O)NCc1ccc(CNC(=O)c2[nH]cnc2C(=O)NC2CCN(C(=O)OC(C)(C)C)CC2)cc1 | 9.26
48 | Cc1ccccc1NC(=O)c1ccc(Cl)c(NC(=O)c2ccncc2)c1 | 8.5
49 | O=C(Nc1nc(-c2ccccn2)cs1)c1ccco1 | 4.9
50 | CSCC[C@H](NC(=O)NCCC1=CCCCC1)C(=O)O | -0.163
51 | COc1ccc2nc(NC(=O)CS(=O)(=O)c3ccc(C)cc3)sc2c1 | 14.1
52 | COC(=O)c1cc2sccc2n1Cc1nc(-c2ccc(OC)cc2)oc1C | -2.21
53 | COc1cccc(NC(=S)NNC(=O)CCn2cc([N+](=O)[O-])cn2)c1 | 7.92
54 | CC1(C)Cc2ccccc2C(NNC(=O)c2ccncc2)=N1 | 13.2
55 | CC(C)OC(=O)CSc1nnc(-c2ccccc2)n1N | 5.28
